Broadly, the % Inhibition is the drop in the measured response relative to a control, in per cent.

Molecules are shown by their SMILES. About 540 (0.36%) of roughly 150,000 compounds showed an effect of 50% or more. The list shows a part of the results.

This assay relates to Plasmodium falciparum. Nature of the assay: Primary screen in NF54 nanoGlo assay, in single point, at 2uM, 72h; a lower Z score goes with more inhibition. It counts as functional, Erythrocyte. Particulars: timepoint 72 hour.
Consider `C[C@H]1Cc2cc(Br)cc3c(=O)c(C(=O)NC4CCCCCCC4)cn1c23`, for which the “% Inhibition” value is recorded as -3% and the Z score is on record as 0.42.
`COc1cccc(C(=O)N[C@H]2CCC23CCOCC3)c1`: the “% Inhibition” value is -6% and the Z score was determined as 0.89.
Taken in the same sequence, the figures for `O=C(Nc1ccc2c(c1)OCCO2)c1ccc(-c2ccnc(N3CCCC3)n2)cc1` were 2% and -0.23.
As to `COCCn1nc2n(c1=O)CCC1(CC2)CCN(C(=O)c2ccc(C)s2)CC1`, the “% Inhibition” value is listed as 9% and the Z score was -1.05.
Taken in the same sequence, the figures for `CCOc1ccc(S(=O)(=O)N2CC[C@@]3(CCCOC3)C2)c(C)c1` were -1% and 0.12.
Taken in the same sequence, the figures for `Nc1nnc(-c2cn(-c3ccccc3)nc2-c2ccc(F)cc2)s1` were 4% and -0.53.
Take `O=C(Cc1coc(-c2ccc(F)cc2)n1)NS(=O)(=O)C[C@H]1CCCCO1`: the “% Inhibition” value is reported as -11% and the Z score is listed as 1.68.
Taken in the same sequence, the figures for `Cc1[nH]ccc1C(=O)N(C)Cc1csc(C(C)(C)O)n1` were -11% and 1.48.
For `Cc1ccc(CN(C)C(=O)c2nccnc2-c2nc3ccccc3s2)c(C)c1`, the “% Inhibition” value is -7% and the Z score was 1.18.
On to `COc1ccc(C(=O)NCCC(=O)NCc2ccco2)cc1OC`, for which the “% Inhibition” value is 6% and the Z score is given as -0.67.
The like results for `COc1ccccc1N1CCN(CC[C@@H]2CC[C@H](O)[C@@H](C(=O)NC3CC3)O2)CC1` were, in that order, 0% and -0.05.
Taken in the same sequence, the figures for `CO[C@H]1CCOC[C@@H]1NC(=O)c1cc(Cl)ccc1O` were 11% and -1.91.
The like results for `Cc1ccc(CNC(=O)CN2N=C(c3ccccc3)c3cc(Cl)ccc3S2(=O)=O)cc1` were, in that order, -14% and 1.28.
Consider `Cc1noc(C(C)N2CCC(C(=O)OC(C)(C)C)C2)n1` (configuration not stated), for which the “% Inhibition” value is recorded as -10% and the Z score worked out at 0.89.
The like results for `COc1cccc(C(=O)N(CC(=O)Nc2nc(-c3ccccc3)cn2-c2cccc(C)c2)C2CC2)c1` were, in that order, 6% and -0.87.
On to `Cc1nc2ccccc2nc1N1CCN(CCOc2ccccc2)CC1`, for which the “% Inhibition” value was -1% and the Z score is 0.25.
As to `Nc1nc2c(c(N3CCc4[nH]nc(C5CCC5)c4C3)n1)CCNC2`, the “% Inhibition” value is given as 10% and the Z score is given as -1.29.
The like results for `O=C(O)c1ccc2c(c1)C=C(n1ccnc1)CC2` [ROLAFAGREL] were, in that order, -4% and 0.52.
Taken in the same sequence, the figures for `Cc1cc(C)c(CCNS(=O)(=O)CC2CCOCC2)c(C)c1` were 3% and -0.46.
Taken in the same sequence, the figures for `CN(C)C(=O)c1ccc(OCc2nnc(C(=O)Nc3ccccc3F)s2)cc1` were -22% and 2.04.
For `O=S(=O)(C[C@H]1CCOC1)N1CCc2cc(Br)ccc21`, the “% Inhibition” value stood at 0% and the Z score is -0.04.
The like results for `CNC(=O)NC1CCN(C(=O)c2scc(C)c2Cl)CC1` were, in that order, -6% and 0.8.
Turning to `C[C@@H](CN1CCOCC1)N(C)S(=O)(=O)c1cccc(N(C)C)c1`, the “% Inhibition” value is listed as -7% and the Z score was found to be 1.19.
Take `CCC1(CC)CN(CC(N)=O)CC[S@@+]1[O-]`: the “% Inhibition” value is reported as -20% and the Z score came out at 2.59.
The like results for `CC(=O)N1CC[C@H]2[C@H](CCCN2C2Cc3ccccc3C2)C1` were, in that order, -14% and 1.6.
Taken in the same sequence, the figures for `COC(=O)c1ccc(C(=O)N(C)Cc2cc(F)c(F)c(F)c2)cn1` were -6% and 0.79.
Regarding `O=C(Nc1cccc(-n2ccnn2)c1)N1CC[C@H](Oc2ccccc2Cl)C1`, the “% Inhibition” value is listed as -8% and the Z score amounted to 1.25.
Regarding `Cn1cc(S(=O)(=O)NCc2cc(C3CC3)ncn2)cn1`, the “% Inhibition” value is recorded as 16% and the Z score is reported as -2.16.
`CC(C)Oc1c(Cl)cccc1NC(=O)C1CC1c1cnn(C)c1` (configuration not stated): the “% Inhibition” value is on record as -9% and the Z score came to 1.26.
Taken in the same sequence, the figures for `Cc1nn(C)c(C)c1-c1cc(C(=O)N2C[C@H]3CC[C@@H](C2)N(C)C3=O)n(C)n1` were 1% and -0.15.
`O=C(NCc1ccc(F)cc1)c1nn(-c2ccccc2Cl)nc1CO`: the “% Inhibition” value was -9% and the Z score is given as 1.54.
With `CC[C@@H](C(=O)Nc1ncn(CC(=O)N(C)C)n1)c1ccc(F)cc1`, the “% Inhibition” value is -7% and the Z score was found to be 0.77.
With `COc1ccc(S(=O)(=O)N2CCOC[C@H](Oc3cccnc3)C2)cc1`, the “% Inhibition” value was found to be 4% and the Z score is -0.58.
For the molecule `Cn1cnc(NS(=O)(=O)c2ccc3c(c2)CCCC3)c1C(N)=O`, the “% Inhibition” value was -12% and the Z score came out at 1.82.
Taken in the same sequence, the figures for `COC(=O)c1ccc(Cn2ccnc2-c2ccncc2)cc1` were -8% and 1.49.
On to `c1cc(CCN2CCc3cncnc3C2)ccn1`, for which the “% Inhibition” value is -6% and the Z score amounted to 0.87.
Taken in the same sequence, the figures for `Cc1cc(C)c(S(=O)(=O)NCCC2CCN(C(=O)c3ccccc3)CC2)cc1C` were -6% and 0.71.
Taken in the same sequence, the figures for `COc1cccc(CN[C@H]2CCCn3nc(C(C)C)nc32)n1` were -3% and 0.34.
The like results for `Cc1ccc(NCC(=O)Nc2nc(-c3ccc(Cl)cc3)cc(-c3ccc(Cl)cc3)n2)cc1` were, in that order, -6% and 1.01.
As to `COc1ncccc1-c1ccncc1C`, the “% Inhibition” value was -9% and the Z score came out at 1.31.
Taken in the same sequence, the figures for `Cc1nonc1CN(C)C(=O)C[C@@H](c1cccc(O)c1)c1cccc(Cl)c1` were -3% and 0.3.
As to `CC[C@H]1CCc2c(sc(NC(=O)CCC(=O)O)c2C(=O)NC2CCCCC2)C1`, the “% Inhibition” value is -12% and the Z score is given as 1.67.
The like results for `CCN(CC)c1onc(-c2ccccc2)c1CN(CCC(C)C)C(C)=O` were, in that order, -4% and 0.51.
For `CC(COC1CCOC1)NC(=O)C1Cc2cc(F)ccc2NC1=O` (configuration not stated), the “% Inhibition” value is -3% and the Z score amounted to 0.45.
For the molecule `O=C(NC1CCCCC1)c1ccc(S(=O)(=O)N[C@H]2CCOC2)cc1`, the “% Inhibition” value was 0% and the Z score is reported as -0.1.
Taken in the same sequence, the figures for `CCOc1ccc(C(=O)NCC2(N3CCCCC3)CCOCC2)cc1` were -10% and 1.28.
The like results for `COc1cccc(C(=O)Nc2cccc3c2C(=O)N(c2ccccc2)C3=O)c1` were, in that order, -7% and 1.11.
For the molecule `CCOc1ccc(CN2CCC3(CC2)C(O)CC3OCC)cc1F` (configuration not stated), the “% Inhibition” value stood at 5% and the Z score is recorded as -0.54.
Taken in the same sequence, the figures for `Cc1ccc(OCC(=O)N2CCC3(CC2)C[C@@H](N2CCOCC2)CCO3)cc1` were -9% and 1.15.
Taken in the same sequence, the figures for `Cn1ccc(NC(=O)NCC(=O)Nc2ccc(F)cc2)n1` were -4% and 0.55.
The like results for `COC(=O)c1cc(N)cc(Cl)c1F` were, in that order, -4% and 0.78.
`O=C(CC1=Nc2ccccc2S(=O)(=O)N1)Nc1ccc(F)cc1F`: the “% Inhibition” value is on record as -2% and the Z score amounted to 0.2.
The like results for `Cc1cc(-c2ccccc2)nc2oc(C(=O)c3ccc(-c4ccccc4)cc3)c(N)c12` were, in that order, -30% and 3.5.
The like results for `CCC(C)C(NC(=O)C1CCCC1)c1nc(-c2cccc(C)c2)no1` (configuration not stated) were, in that order, -17% and 2.08.
Taken in the same sequence, the figures for `CCOc1cc(C(=O)N2CCc3c(CN4CCCC4)cccc32)on1` were 0% and 0.04.
`CC[C@H](NC(=O)c1cnc(C2CC2)nc1)c1cnn(C)c1`: the “% Inhibition” value is on record as -8% and the Z score was 1.65.
In the case of `COc1ccc(CNC2CCCC2)cc1-c1cccnc1`, the “% Inhibition” value is listed as -9% and the Z score is recorded as 1.26.
Taken in the same sequence, the figures for `CCOc1cc2sc(N3CCC(C(=O)N4CCN(c5cccc(OC)c5)CC4)CC3)nc2cc1Br` were -5% and 0.65.
Taken in the same sequence, the figures for `O=C(CCN1CCCCO1)NC[C@]1(c2ccc(F)cc2)CCOC1` were -12% and 2.48.
The like results for `CCc1nccn1[C@H]1CCCN(S(=O)(=O)CCCC(C)(C)C)C1` were, in that order, 17% and -2.09.
Regarding `CCN(C(=O)[C@@H]1CCCN1S(=O)(=O)c1cc2c(cc1C)NC(=O)CO2)c1cccc(C)c1`, the “% Inhibition” value was -3% and the Z score is on record as 0.42.
The like results for `CN(C)S(=O)(=O)N1CCC(Oc2ccc(C(=O)NC3CCCCCCC3)cc2)CC1` were, in that order, -15% and 1.33.
The like results for `COc1ccc([C@@H]2CCCN2S(=O)(=O)N2CCCCCC2)cc1OC` were, in that order, -5% and 0.69.
Taken in the same sequence, the figures for `Cc1cccc(NC(=O)N2CCCCCC2)n1` were 32% and -0.63.
For the molecule `O=C(NCc1nnc2cc(C(F)(F)F)ccn12)NC1CCCCC1`, the “% Inhibition” value was 8% and the Z score is recorded as -1.02.
The like results for `CCC(C)(C)OCC(=O)N1CC[C@H](Nc2ccc3nc(C)cn3n2)C1` were, in that order, -12% and 1.59.
The like results for `Cc1nccn1C1CCCN(C(C)C(=O)NC2(C#N)CCCCC2)C1` (configuration not stated) were, in that order, 4% and -0.47.
Taken in the same sequence, the figures for `CCOc1ccc(Oc2cc(NC(=O)COc3ccccc3C)cc(NC(=O)COc3ccccc3C)c2)cc1` were 2% and -0.37.
As for `COc1ccc(C(=O)N2CC[C@@H]3CN(Cc4cccnc4)[C@@H]3C2)c(C)c1`, the “% Inhibition” value is on record as -3% and the Z score stood at 0.46.
As to `O=C(CN1C(=O)CCn2nc(-c3cccc(Cl)c3)cc21)NCCCN1CCCC1=O`, the “% Inhibition” value is given as -14% and the Z score came to 1.41.
The like results for `O=C(O)C[C@@H]1CCN(Cc2ccccc2)C[C@@H]1Cc1nc2ccccc2[nH]1` were, in that order, 24% and -2.68.
Taken in the same sequence, the figures for `Cc1nc(-c2nc(Cc3ccsc3)no2)c[nH]1` were -6% and 1.24.
Taken in the same sequence, the figures for `CC(C)c1nc(NCCCOC2CCCCC2)no1` were 5% and -0.71.
For `Cc1ccnc(NS(=O)(=O)c2ccc(NC(=O)c3sc4ccccc4c3Cl)cc2)n1`, the “% Inhibition” value was 2% and the Z score is -0.33.
The like results for `Cc1nn(C(C)C)c(C)c1CN(C)C(=O)c1cc(C#N)c[nH]1` were, in that order, 0% and -0.07.
In the case of `CN1CCN(c2nc(-c3cc(Cl)cc(Cl)c3)no2)CC1`, the “% Inhibition” value is recorded as -18% and the Z score was 1.93.

Source of the values: ChEMBL document CHEMBL4888484, “Replenishing the malaria drug discovery pipeline: Screening and hit evaluation of the MMV Hit Generation Library 1 (HGL1) against asexual blood stage Plasmodium falciparum ,using a nano luciferase reporter read-out” (2022).
